Test results taken from a collection of fitness landscapes (doi:10.1016/j.celrep.2020.107928).
In all, about 81,000 sequences were measured (“one-hybrid fitness for binding parS DNA”: median about -0.17, highest 2% from about 0.51 on). The list shows a part of the results.

B1: Caulobacter ParB omega fusion; a variant is named by its letters at X, in order, B8GW30 (parent)
chain: MESVVVGEPGMSEGRRGLGRGLSALLGEVDAAPAQAPGEQLGGSREAPIEILQRNPDQPRRTFREEDLEDLSNSIREKGVLQPILVRPSPDTAGEYQIVAGERAWRAAQRAGLKTVPIMVRELDDLAVLEIGIIENVQRADLNVLEEALSYKVLMEKFERTQENIAQTIGKSXSHVANXMRLLXLPDEVQSYLVSGELTAXHARAIAAAADPVALAKQIIEGGLSVRETEALARKAPNLSAGKSKGGRPPRVKDTDTQALESDLSSVLGLDVSIDHRGSTGTLTITYATLEQLDDLCNRLTRGI

Variants of: B1
Assay: one-hybrid fitness for binding parS DNA (scaled: cognate 1, non-cognate 0); higher = stronger binding
Conditions: with parS DNA site
In short: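 Bacterial one-hybrid selection in E. coli USO rpoZ- hisB- pyrF- with a HIS3 reporter carrying the site 19 bp from the promoter, screening Caulobacter ParB libraries with four specificity codons randomised (NNS). Cells grew 48 hours at 37°C on M9-minus-histidine plus 0.1 mM IPTG and 5 mM 3-AT. Plasmids before and after selection were Illumina-sequenced, three replicate libraries pooled, and variants under 10 reads dropped. Fitness is the log change in variant-to-wild-type read ratio, rescaled to cognate 1, non-cognate 0.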

one-hybrid fitness for binding parS DNA, 0.219:
RHAW

one-hybrid fitness for binding parS DNA, 0.602:
RVNA

one-hybrid fitness for binding parS DNA, 0.273:
RFGM

one-hybrid fitness for binding parS DNA, ≤ 0.2:
TSTK
NRCG
CLAA
PWPD
KGTS
LYRV
SLRF
NLDG
TLDI
QPKS
IWRR
NLRV
CVKS
NKYF
NWHG
WTDT
GYPA
DLGV
MTRG
PWTY
CCHS
RMFV
CSHC
GSFS
NKVQ
CRDV
EPTR
CPAA
KRGM
DIRT
MVIP
NMQS
HVTI
KRSD
LPLW
FDAE
ACRC
SNEC
ETKS
ATMT
QWKF
PQRS
YTRC
WVMV
DMPT
GCLT
NIQM
RNKL
RDYS
SIEF
KTNQ
QNPN
AKYS
TIYV
PRGP
PLNY
VRRK
TDSW
LGET
GISA
DGRF
VYQR
YVML
TNKH
QCFT
HKRV
YNAS
LYMT
VSVL
PVPR
YTCR
DCPY
YHKY
QRWS
GYFS
CLEF
QVQN
DRIC
DQYD
HVLS
WNDI
RMHK
FNPM
VLVL
SSYF
YPGG
WENS
TGMF
VWNY
RPHF
EHKS
SSTL
QKWS
DMTR
CYTF
NCSM
PETF
YHTP
PCPK
IVVF
DYFM
QVLW
MTYT
YACT
GSVR
DNLI
AHAP
HEQR
LWRR
LIHM
VSPW
TDIF
DQYT
RATR
PKPQ
TTHV
RDFI
PRRR
IGGI
YAHT
ARCN
VIKS
LVCF
MSSV
FDWS
QRTY
PYYI
FVGG
GREM
ELMD
DYLR
ELDC
CWSG
WQEV
EYLT
TYNP
NMWR
VEIG
IPQG
PLLF
TDVV
ALRH
FEMS
NPMM
QLTS
AKKT
IFFR
FQTR
GMFG
SNEV
LNYC
LGIS
IHNS
AYKT
NEQR
HPCG
KHYV
LPEY
EDLC
QGKS
CRQA
HACA
PYLM
TKRW
ICLF
QCDG
RWYV
EPGL
YKLV
RQDL
SLGY
DMGT
WPAF
FLQS
LARV
RRQK
KPYR
QSDY
PFNA
ACNS
SAKI
QATH
PIYG
VSSW
PNQG

one-hybrid fitness for binding parS DNA, 0.278:
CHQG

one-hybrid fitness for binding parS DNA, 0.566:
RRGT

one-hybrid fitness for binding parS DNA, 0.925:
RYAC

one-hybrid fitness for binding parS DNA, 0.28:
FGLE

one-hybrid fitness for binding parS DNA, 0.92:
RVST

one-hybrid fitness for binding parS DNA, 0.846:
RSLT

one-hybrid fitness for binding parS DNA, 0.254:
RTWH
